The source of these data is the supplement of paper PMC3334620.

In all, about 33,000 sequences were measured (“E-score (-0.5 to 0.5)”: median about -0.012, highest 2% from about 0.27 on). Some of the results follow.

This experiment concerns the target T1, Vhr1 (UniProt P40522).
T1 sequence: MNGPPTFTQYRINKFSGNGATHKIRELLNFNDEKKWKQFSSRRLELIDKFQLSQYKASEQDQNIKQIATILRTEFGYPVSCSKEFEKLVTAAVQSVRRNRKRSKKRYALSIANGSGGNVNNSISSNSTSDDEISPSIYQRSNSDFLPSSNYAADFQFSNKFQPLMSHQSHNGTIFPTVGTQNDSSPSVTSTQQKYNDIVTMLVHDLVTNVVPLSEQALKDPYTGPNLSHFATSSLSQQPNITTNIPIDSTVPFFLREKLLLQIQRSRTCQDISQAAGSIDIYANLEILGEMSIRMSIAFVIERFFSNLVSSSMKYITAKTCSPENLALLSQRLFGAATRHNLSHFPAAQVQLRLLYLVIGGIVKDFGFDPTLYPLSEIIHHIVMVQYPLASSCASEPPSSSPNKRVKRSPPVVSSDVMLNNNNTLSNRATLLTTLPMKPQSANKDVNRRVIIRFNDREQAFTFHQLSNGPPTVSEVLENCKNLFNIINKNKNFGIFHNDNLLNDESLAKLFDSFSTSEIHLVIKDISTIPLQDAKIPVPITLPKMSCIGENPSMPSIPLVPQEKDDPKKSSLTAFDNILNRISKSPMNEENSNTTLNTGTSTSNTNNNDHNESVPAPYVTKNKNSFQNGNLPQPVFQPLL
Nature of the experiment: PBM E-score (8-mer binding enrichment) (E-score (-0.5 to 0.5)); higher = stronger / more preferred TF binding; most listed sequences are background and not binding sites. Particulars: protein concentration: 200 nM; construct: GST-full length. In a few lines: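 Universal all-10-mer Agilent arrays, fresh or stripped once, were converted to double-stranded form by primer extension. GST-tagged yeast transcription factors from PURExpress in vitro transcription/translation, full-length or DNA-binding domain only, were applied at about 100-200 nM and detected with fluorescent anti-GST. After masliner normalisation, the Universal PBM Analysis Suite scored each ungapped eight-base word together with its reverse complement by E-score.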
Take TATACTAA: the “PBM E-score” value worked out at 0.00615.
On to ATATTCGG, for which the “PBM E-score” value amounted to 0.0186.
With ATTTACGC the figure was -0.239; with AGGCCCAG, -0.192.
Regarding GATAGCCA, the “PBM E-score” value is -0.0927.
As to CATGCTAC, the “PBM E-score” value is 0.0473.
Then ACTATATA, with 0.274.
As for CCCGACCC, the “PBM E-score” value was 0.123.
As to ACCGAGTC, the “PBM E-score” value turned out to be 0.254.
For ACCGACAG, the “PBM E-score” value turned out to be 0.102.
As to CTGATAAA, the “PBM E-score” value was found to be 0.0935.
For GCACAGCA, the “PBM E-score” value is 0.128.
For the sequence AACAACGT, the “PBM E-score” value is -0.0915.
Then GCACAGAA, with -0.0823; and AGACGATC, with -0.112.
For ACTGGGAC, the “PBM E-score” value was -0.0593.
With CCGGAGTA, the “PBM E-score” value was 0.0674.
On to CATACCAA, for which the “PBM E-score” value came to 0.152.
On to CTGCGTTC, for which the “PBM E-score” value was 0.0655.
For ACGTGCCA, the “PBM E-score” value was -0.113.
With ATCGTCTG the figure was 0.125; with CCCGCGGG, 0.102; with GGACCGTA, -0.201.
For the sequence CGTGTCAG, the “PBM E-score” value came out at 0.037.
With AAATTCCT the figure was -0.23.
Take ATAGTTCG: the “PBM E-score” value came to 0.191.
For the sequence CTGTGAAA, the “PBM E-score” value was -0.053.
Then CAGGCTAG, with -0.159; and ACGCACGA, with 0.0415; and CATTGTAG, with 0.15.
As to CTTGTTCC, the “PBM E-score” value is -0.187.
On to ATTGTTTA, for which the “PBM E-score” value was -0.0808.
GAACACTA: the “PBM E-score” value was -0.091.
On to AGGTATTG, for which the “PBM E-score” value was determined as 0.0621.
ACGACCTC: the “PBM E-score” value is 0.247.
For CCTCCAGC, the “PBM E-score” value was -0.0494.
ATATACAT: the “PBM E-score” value was 0.263.
Turning to GAAACTAC, the “PBM E-score” value was -0.0549.
For the sequence CGCTACGA, the “PBM E-score” value was 0.104.
With CGTGCCCC, the “PBM E-score” value was -0.0873.
For CACAGGAG, the “PBM E-score” value worked out at 0.0372.
CTCGAACC: the “PBM E-score” value is -0.1.
Take CTGTGTGC: the “PBM E-score” value turned out to be 0.177.
Turning to TAACAGTA, the “PBM E-score” value turned out to be 0.113.
For the sequence ATAGTAAC, the “PBM E-score” value was 0.0117.
Regarding GGACGCAA, the “PBM E-score” value is -0.194.
Then ATGCGTCC, with -0.00865; and ACAGTCAA, with 0.0811.
Turning to ACGTTACT, the “PBM E-score” value stood at 0.0689.
CATTGTCG: the “PBM E-score” value was determined as 0.00973.
For TCAAAGCA, the “PBM E-score” value is -0.00828.
Then AACACAAA, with -0.106.
With GCGAGCTA the figure was -0.0854; with AGAGTAAA, -0.0878; with CTAAACAA, -0.118.
With ATCCCCCG the figure was 0.139.
Consider ACCAACCT, for which the “PBM E-score” value came out at 0.05.
Take CGAGGGGA: the “PBM E-score” value was 0.0238.
Then CGTTAATC, with 0.0766.
On to AGGTAAAT, for which the “PBM E-score” value was -0.0693.
On to CGGGGCTC, for which the “PBM E-score” value was 0.0123.
As to GGTGATAA, the “PBM E-score” value turned out to be 0.0232.
As to GGGAATAC, the “PBM E-score” value is -0.107.
Regarding GGATGCCA, the “PBM E-score” value was -0.183.
With GGTCAGTA, the “PBM E-score” value is -0.0697.
Then ACAGTCTA, with -0.108; and CCACTTGA, with 0.0707.
Regarding TAGCACTA, the “PBM E-score” value is -0.0111.
With GCTATTAC, the “PBM E-score” value was determined as 0.0507.
As to CAGGAAAC, the “PBM E-score” value is 0.0605.
As for AACTTACG, the “PBM E-score” value is -0.186.
Consider TTAATCAA, for which the “PBM E-score” value was 0.0622.
For the sequence CCGAGACC, the “PBM E-score” value was 0.0957.
On to GTACTATA, for which the “PBM E-score” value worked out at 0.163.
On to GGGAAACC, for which the “PBM E-score” value was -0.0128.
Then AAATCCGG, with 0.0683; and GAACCGAA, with -0.0623; and AAGTTGAC, with -0.0187.
Then CATCACCC, with 0.103.
Then GGAGCAAC, with -0.106.
ACAGCGCT: the “PBM E-score” value stood at 0.0728.
Regarding CAAAAGCA, the “PBM E-score” value was -0.255.
On to GTGAAAAC, for which the “PBM E-score” value was -0.0962.
Regarding AGCGAAGC, the “PBM E-score” value is -0.213.
Then AGCGATGC, with -0.116; and GCGTGGCC, with -0.157.
Then ATTGGTAA, with -0.0186; and ACAGATGA, with -0.0259.
For AACACCCT, the “PBM E-score” value was -0.00488.
With ACGGGGAA, the “PBM E-score” value is -0.0773.
For the sequence AAACCAGA, the “PBM E-score” value came to 0.0998.
Regarding CTTCATCC, the “PBM E-score” value was -0.117.
As to AGAATCAT, the “PBM E-score” value amounted to 0.323.
In the case of CTCGAGCA, the “PBM E-score” value was -0.0747.
